From the RNAGym collection of RNA variant scans (doi:10.7554/elife.90254) come the findings set out here.

B1: OR4K15 (parent)
chain: GUUAACGGUCAUAGGCCAUGGAAACUAGGAGCACCAUUUCGCUGCCAGUGAAGAAAUGAACAAAGAAAAUCUGGGCCAGGCAGGCAUCAAAAGAAAUAGUCUUGCGCUCAACCAGAAAGUCUGUAAUCAUUUUAAGGGUA

The source gives no read counts; variants with many changes may rest on few reads.

Variants of B1 are the subject of the data set. Briefly: self-cleavage, relative activity (ratio to wild type); higher = more cleavage; in vitro, sequencing; the parent is a self-cleaving ribozyme.
For the variant GUUAACGGUCAUAGGCCAUGGAAACUAGGAGCACCAUUUCGCUGCCAGUGAAGAAAUGAACAAAGAAGAUCUGGGCCAGGCAGGCAUCAAAAGAAAUAGCCUUGCGCUCAACCAGAAAGUCUGUGAUCAUUUUAAGGGUA [A68G U100C A125G], the self-cleavage was determined as 1.59.
The figure for GUUAACGGUCAUAGGCCAUGGAAACUAGGAGCACCAUUUCGCUGCCAGUGAAGAAAUGAACAAAGAAGAUCUGGGCCAGGCAGGCACCAAAAGAAAUAGCCUUGCGCCCAACCAGAAAGUCUGUAAUCAUUUUAAGGGUA [A68G U87C U100C U108C] is 0; for GUUAACGGUCAUAGGCCAUGGAAACUAGGAGCACCAUUUCGCUGCCAGUGAAGAAAUGAACAAAGAAGAACUGGGCCAGGCAGGCAUCAAAAGAAAUAGUCUUGCGCUCAACCAGAGAGUCUGUAAUCAUUUUAAGGGUA [A68G U70A A117G] it is 1.37; for GUUAACGGUCAUAGGCCAUGGAAACUAGGAGCACCAUUUCGCUGCCAGUGAAGAAAUGAACAAAGAAGAUCUGGGCCAGGCAGGCAUCAGAAGAAAUAGUCUUGCGCUCACCCAGAAAGUCUGUAAUCAUUUUAAGGGUA [A68G A90G A111C] it is 0.
The figure for GUUAACGGUCAUAGGCCAUGGAAACUAGGAGCACCAUUUCGCUGCCAGUGAAGAAAUGAACAAAGAAGAUCUGGGCCAGGCAGGCAUCAAAAGAGAUAGUCUCGCGCUCAACCAGAAAGUCUGUAAUCAUUUUAAGGGUA [A68G A95G U103C] is 0.85; for GUUAACGGUCAUAGGCCAUGGAAACUAGGAGCACCAUUUCGCUGCCAGUGAAGAAAUGAACAAAGAAGAUCUGGGCCAGGCAGGCAUCAAAAGAAAUAGUCUCGCGCUCAACCAGAAAGUCUGUAAUCAUUUUAAGGAUA [A68G U103C G138A] it is 0.88; for GUUAACGGUCAUAGGCCAUGGAAACUAGGAGCACCAUUUCGCUGCCAGUGAAGAAAUGAACAAAGAAGAUCUGGGCCAGGCAGGCAUCAAAAGAAAUAGUCUUGCGCUCAGCCAGAAAGUCUGUAAUAACUUUAAGGGUA [A68G A111G C128A U130C] it is 0.01.
Regarding GUUAACGGUCAUAGGCCAUGGAAACUAGGAGCACCAUUUCGCUGCCAGUGAAGAAAUGAACAAAGAAGAUCUGGGCCAGGCAGGCAUCAAAAGAAAUAGUCUUGCGCUCAACCAGAAAGUCUGUAAUCAUUUAAACGGUA [A68G U133A G136C], the self-cleavage is 0.98.
Next, GUUAACGGUCAUAGGCCAUGGAAACUAGGAGCACCAUUUCGCUGCCAGUGAAGAAAUGAACAAAGAAGAUCGGGGCCAGGCAGGCUUCAAAAGAAAUAGUCUUGCGCUCAACCAGAAAGUCUGUAAUCAUUUUAAGGGUA [A68G U72G A86U]: 0.34; GUUAACGGUCAUAGGCCAUGGAAACUAGGAGCACCAUUUCGCUGCCAGUGAAGAAAUGAACAAAGAAGAUCUGGGCCAGGCAGGCAUCAAAAGAAAUAGUCUUGCGCUCAGCCAGAAAGUCUGUAAUCAUUCUAAGGGUA [A68G A111G U132C]: 0.01.
The figure for GUUAACGGUCAUAGGCCAUGGAAACUAGGAGCACCAUUUCGCUGCCAGUGAAGAAAUGAACAAAGAAGAUCUGGGCCAGGCAGGCAUCAAAAGAAAUAGUCUUGCGCUCAACCAGAAAGUCUGUAAUCACUUUAGGGGUA [A68G U130C A135G] is 0.92; for GUUAACGGUCAUAGGCCAUGGAAACUAGGAGCACCAUUUCGCUGCCAGUGAAGAAAUGAACAAAGAAGAUCUGGGCCAGGCAGGCAUCAAAAGAAAUAGUCUUGCGCUCAACCGGAAAGUCUGUAAUCGUUUUAAGGGUA [A68G A114G A129G] it is 0.1; for GUUAACGGUCAUAGGCCAUGGAAACUAGGAGCACCAUUUCGCUGCCAGUGAAGAAAUGAACAAAGAAGAUCUGGGCCAGGCAGGCAUCAAGAGAAAUAGUCCUGCGCUCAACCAGAAAGUCUGUAAUCAUUUUAAGGGUA [A68G A91G U102C] it is 1.78.
Next, GUUAACGGUCAUAGGCCAUGGAAACUAGGAGCACCAUUUCGCUGCCAGUGAAGAAAUGAACAAAGAAGAUCUAGGCCAGGCAGGCAUCAAAAGAAAUAGUCUUGCGCUCAACCAGAAGGUCUGUAAUCAUUUUAAGGGUA [A68G G73A A118G]: 0.1; GUUAACGGUCAUAGGCCAUGGAAACUAGGAGCACCAUUUCGCUGCCAGUGAAGAAAUGAACAAAGAAGAUCUGGGCCAGGCAGGCAUCAAAAGAGAUAGUCUUACGCUCAACCAGAAAGUCUGUAAUCAUUCUAAGGGUA [A68G A95G G104A U132C]: 0.04.
On to GUUAACGGUCAUAGGCCAUGGAAACUAGGAGCACCAUUUCGCUGCCAGUGAAGAAAUGAACAAAGAAGAUCUGGGCCAGGCAGGCAUCAAAAGAAAUAGUCCUGAGCUCAACCAGAAAGUCUGUAAUCAUUUUAAGGGUA [A68G U102C C105A], for which the self-cleavage amounted to 0.03.
GUUAACGGUCAUAGGCCAUGGAAACUAGGAGCACCAUUUCGCUGCCAGUGAAGAAAUGAACAAAGAAGACCUGGGCCAGGCAGGCAUCAAAAGAAAUAGUCUCGCGCUCAACCAGAAAGUCUGUAAUCAUUUUAAGGGUA [A68G U70C U103C]: the self-cleavage was found to be 0.42.
On to GUUAACGGUCAUAGGCCAUGGAAACUAGGAGCACCAUUUCGCUGCCAGUGAAGAAAUGAACAAAGAAGAUCUGGGCCAGGCAGGCACCAAAAGAAAUAGUCUCGCGCUCAACCAGAAAGUCUGUAAUCAUUUUAAGGGUA [A68G U87C U103C], for which the self-cleavage was determined as 0.1.
Next, GUUAACGGUCAUAGGCCAUGGAAACUAGGAGCACCAUUUCGCUGCCAGUGAAGAAAUGAACAAAGAAGAUCUGGGCCAGGCAGGCAUCAAAGGAAAUAGUCCUGCGCUCAACCAGAAAGUCUGUAAUCAUUUUAAGGGUA [A68G A92G U102C]: 1.45.
For GUUAACGGUCAUAGGCCAUGGAAACUAGGAGCACCAUUUCGCUGCCAGUGAAGAAAUGAACAAAGAAUCUCUGGGCCAGGCAGGCAUCAAAAGAAAUAGUCUUGCGCUCAACCAGAAAAUCUGUAGUCAUUUUAGGGGUA [A68U A69C G119A A126G A135G], the self-cleavage was determined as 0.57.
Next, GUUAACGGUCAUAGGCCAUGGAAACUAGGAGCACCAUUUCGCUGCCAGUGAAGAAAUGAACAAAGAAGAUCUGGGCCAGGCAGGCAUCAAAAGAAAUAGUCUUGCGCUCAACCGGAAAGUCUGUAAUCAUCUUAAGGGUA [A68G A114G U131C]: 0.17.
